Patent US8268795B2 (priority 2005, dated 2012)
pIC50: −log10 of the molar value. Counter-ions that a name gives are not always drawn.

Test system: small diameter cerebral arteries constricted by 60 mmol/L K+
Experiment: tissue or blood
Format: cell-based, rabbit

For `COc1ccc([C@@H]2Sc3ccccc3N(CCN(C)C)C(=O)[C@@H]2OC(C)=O)cc1` (relative stereo) [diltiazem, benzothiazepin-4(5H)-one, 3-(acetyloxy)-5-[2-(dimethylamino)ethyl]-2,3-dihydro-2-(4-methoxyphenyl)-,(+)-cis-,monohydrochloride], the “K+-induced constrictions that could not be reversed” value was “approximately 20%”, the “reversal of constrictions induced by 60 mmol/L K+” value was “could not fully reverse” and the pIC50 (Oryctolagus cuniculus, 72 h, read-out: IC50 value of diltiazem for vasodilation) was roughly 6.00.
